Here are results for 34 variants from the RNAGym collection of RNA variant scans (doi:10.1093/nar/gkz1192).

Read counts are not given, so values of variants with three or more changes are uncertain.

B1: CPEB3 Ribozyme (parent)
chain: UAACAGGGGGCCACAGCAGAAGCGUUCACGUCGCAGCCCCUGUCAGAUUCUGGUGAAUCUGCGAAUUCUGCUGUAUAUCUC

The variants in this data set derive from B1. In words: self-cleavage, relative activity (ratio to wild type); higher = more cleavage; in vitro, sequencing. In short, it runs like this: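 Barcoded CPEB3 ribozyme mutants, produced by rounds of error-prone PCR, self-cleaved while being transcribed with T7 RNA polymerase for 5 hours at 37°C and during a subsequent 15 min DNase I step before EDTA was added. Sequencing of template-switched cDNA on Illumina gave cleaved and total reads, and DNA sequencing assigned barcodes to variants. Each variant's relative activity is its cleaved/total read fraction divided by the unmutated ribozyme's fraction, averaged across three batches. A variant needed a minimum of 5 reads.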
For UAACAGGGGGCCACAGCGGAAGCGUUCACGUCGCAGCCACUGACGGAUUCUGGUGAACCUGCGAAUUCUGCUGUAUAUCUC [A18G C39A U43A A45G U58C], the self-cleavage amounted to 0.1.

As to UAACAGGGGGCCACAGCGGAAGCGUUCACGUCGCAGCCCAUGUCAGAUUCUGGUGAAUCUGCGAAUUCUGCCGUAUAUCUC [A18G C40A U72C], the self-cleavage came out at 0.27.

For the variant UAACAGGGGGCCACAGCGGAAGCGUUCACGUCGCAGCGCCUGUCAGAUUCUGGUGAAUCCGCGAAUUCUGCUGUAUAUCUC [A18G C38G U60C], the self-cleavage is 0.09.

As to UAACAGGGGGCCACAGCGUAAGGGAUCACGUCGCAGCCCCUGCCAGAUUCUGGUGAGUCUGCGAAUUCUGCUGUAUAUCCC [A18G G19U C23G U25A U43C A57G U80C], the self-cleavage is 0.04.

With UAACAGGGGGCCACAGCGGAAGCGUUCACGUCGCAGCGCCUGCCAGAUUCUGGUGAAUCUGCGAAUUCUGCUUUAUACCUC [A18G C38G U43C G73U U78C], the self-cleavage stood at 0.05.

For the variant UAACAGGGGGCCACAGCGGAAGCGUUCACGUCGCAGCACCUGUCAGAUUCUGGUGAAUCUGCGGAUUCUGCUGUAUAUCUC [A18G C38A A64G], the self-cleavage was found to be 0.09.

With UAACAGGGGGCCACAGCGGAAGCGUUCACGUCGCAGUCCCUGUCGGAUUCAGGUGAAUCUGCGAAUUCUGCUGUAUAUCUC [A18G C37U A45G U51A], the self-cleavage turned out to be 0.12.

In the case of UAACAGGGGGCCACAGCGAAAGCGUUCUCGUCGCAGCCCCAGUCAGAUUCUGGUGAAUCUGCUAAUUCUGCUGUAUAUCUC [A18G G19A A28U U41A G63U], the self-cleavage came to 0.19.

Take UAACAGGGGGCCACAGCGGAAGCGUUCACGUCGCAGCCCCUGUCAGAUUCUGGUGAAUGUGUGAAUUCUGCUGCAUAUCUC [A18G C59G C62U U74C]: the self-cleavage came out at 0.17.

Regarding UAACAGGGGGCCACAGCGUAGGUGCUCACGUCGCAGCCCCUGUCAGAUUCUGGUGAAUCUGCGAAUUCUGCUGUAUAUCUC [A18G G19U A21G C23U U25C], the self-cleavage amounted to 0.27.

For the variant UAACAGGGGGCCACAGCGAGAGCGUUCACGUCGCAGCCCCUGUCAGAUUCUGGUGAAUCUGCGAAUUCUGCUGUAUAUCUC [A18G G19A A20G], the self-cleavage amounted to 0.27.

Regarding UAACAGGGGGCCACAGCGCGAGCGUUCACGUCGCAGCCCCAGUCAGAUUCUGGUGAAUCUGCGAAUUCUGCGGUAUAUCUC [A18G G19C A20G U41A U72G], the self-cleavage was 0.18.

As to UAACAGGGGGCCACAGCGGAAGCGUUCACGUCGCAGCUCCUGUCAGAUCCUGGUUAAUCUGCGGAUUCAGCUGUAUAUCUC [A18G C38U U49C G55U A64G U69A], the self-cleavage was found to be 0.04.

On to UAACAGGGGGCCACAGCGGAAGCGUUCACGUCGCAGCCCAUGACAGAUUCUGGUGAAUCUGCGAAUUCCGCUGUAUAUCUC [A18G C40A U43A U69C], for which the self-cleavage is 0.32.

Consider UAACAGGGGGCCACAGCGUAAGCGUUCACGUCGCAGCCCCUGUCUGAUUCUGGUGAAUCUGCGAAUUCCGCUGUAUAUCUC [A18G G19U A45U U69C], for which the self-cleavage is 0.06.

As to UAACAGGGGGCCACAGCGACAGCGUUCACGUCGCAGCCCCUGUCAGAUUCUGGUGAGUCUGCGAAUUCUGCUGUAUAUCUC [A18G G19A A20C A57G], the self-cleavage amounted to 0.04.

As to UAACAGGGGGCCACAGCGGAAGCGUUCACGUCGCAGCCCCUGUCAGAUUCUGGUGAAUCUGGGAAUUCUGCUGAAUAUCUC [A18G C62G U74A], the self-cleavage worked out at 0.22.

For UAACAGGGGGCCACAGCGGAAGCGUUCACGUCGUAGCCCCCGACAGACUCUGGUGAAUCUGCGAAUCCUGCUGUAUAUCUC [A18G C34U U41C U43A U48C U67C], the self-cleavage turned out to be 0.05.

In the case of UAACAGGGGGCCACAGCGGAAGCGUUCACGUCGCAGCCCCUGUGAGAUUCUGGUAAAUCUGCGAAUUCUGCUGUAUAUCUC [A18G C44G G55A], the self-cleavage came out at 0.2.

For the variant UAACAGGGGGCCACAGCGGAAGCGUUCACGUCGCAGCACUUGUCAGAUUCUAGUGAAUCUGCGAAUUCUGCUGUAUAUCUC [A18G C38A C40U G52A], the self-cleavage is 0.07.

In the case of UAACAGGGGGCCACAGCGUAAGCGUUCACGUCGCAGCCCCUGUCAGAUUCUGGUGGAUCUGCGAAUCCUGCUGUAUAUCUC [A18G G19U A56G U67C], the self-cleavage was found to be 0.1.

In the case of UAACAGGGGGCCACAGCGGAAGCGUUCACGUCGGAGCCCCUGUCAGAUUCUGGUGAAUCUGCGAAUUCUGCUGUAUAUCUU [A18G C34G C81U], the self-cleavage is 0.39.

Turning to UAACAGGGGGCCACAGCGGAAGCGUUCACGUCGCAGCCACUGUCAGAUCCUGGCGAGUCUGCGAAUUCUGCAGUAUAUCCC [A18G C39A U49C U54C A57G U72A U80C], the self-cleavage was determined as 0.04.

With UAACAGGGGGCCACAGCGGAAGCGUUCACGUCGCAGCCUCUGUCAGAUUCUGGUGAAUCUGCGAAUCCUGCCGUAUAUCUC [A18G C39U U67C U72C], the self-cleavage came to 0.06.

In the case of UAACAGGGGGCCACAGCGGAAGCGUUCACGUCGCAGCCCUAGUCAGAUUCCGGUGAAUCCGCGAAUUCUGCUGUAUAUCUC [A18G C40U U41A U51C U60C], the self-cleavage came to 0.

Regarding UAACAGGGGGCCACAGCGUAAGCGUCCACGUCGCUGCCCCUGCCAGAUUCUGGUGAAUCUGCGAAUUCUGCUGUAUAUCUC [A18G G19U U26C A35U U43C], the self-cleavage worked out at 0.05.

For the variant UAACAGGGGGCCACAGCGGAAGCGUUCACGUCGCAGCCACUGUCAGAUUCUGGUGAGUCUGCGAAUUCUGCAGUAUAUCUC [A18G C39A A57G U72A], the self-cleavage turned out to be 0.08.

Take UAACAGGGGGCCACAGCGGAAGCGUUCACGUCGCAGCCCCUGUAAGAUUCUGGUGAAUCUGCGAAUCCUGCUGUAUAUCUC [A18G C44A U67C]: the self-cleavage stood at 0.14.

UAACAGGGGGCCACAGCGGAAGCGUUCACGUCGCAGCGCCUGUCAGAUUCUGGUGAAUCUGCGAAUUCUGCUGUAUAUCUU [A18G C38G C81U]: the self-cleavage was determined as 0.05.

UAACAGGGGGCCACAGCGGAAGCGUUCACGUCGCAGCUCCUGCCAGAUUCUGGUGAAUCAGCGAAUUCUGCUGUAUAUCUC [A18G C38U U43C U60A]: the self-cleavage came to 0.13.

Consider UAACAGGGGGCCACAGCGGAAGCGUUCACGUCGCAGCCCCUGUCAGAUUUUGGUGAAUCUGCGAAUUCUGCUGAAUACCUC [A18G C50U U74A U78C], for which the self-cleavage amounted to 1.2.

Regarding UAACAGGGGGCCACAGCGGAAGCGUUCACGUCGCAGCCCCUGUCAGAUUCUGGUGAAUCUGUGGAUUCUGCAGUAUAUCUC [A18G C62U A64G U72A], the self-cleavage is 0.21.

Take UAACAGGGGGCCACAGCGGAAGCGUUCACGUCGCAGCCGCUGUCAGAUCCUGGUGAAUCUGCGAAUUCUGCUGUAAAUCUC [A18G C39G U49C U76A]: the self-cleavage amounted to 0.03.

As to UAACAGGGGGCCACAGCGGAAGCGUUCACGUCGCAGCCUCUGUCAGAUUCUGGUGAAUCUGCGGAUUCUGCCGUAUAUCUC [A18G C39U A64G U72C], the self-cleavage stood at 0.09.
